Assay results taken from PubChem BioAssay AID540317 (National Center for Advancing Translational Sciences (NCATS), 2011).
Where “and” joins values, the source holds several entries; their conditions need not be identical. Identical values can stand only once. In all, about 390,000 compounds went through this assay and about 2,200 (0.56%) were called active. The inconclusive results got no clear call from the source; some entries with a clear call stand among them for comparison. The call rests on the fitted dose curve; in most records, active means well fitted inhibition curve with a large enough effect; inconclusive means small, poorly fitted or top-dose-only effect; inactive means no such curve, though single readings can be large or run the other way. Potencies of inconclusive entries are doubtful fits and often do not repeat.

Molecular target: Chromobox protein homolog 1 (Homo sapiens) (UniProt P83916)
Assay: HTS for Inhibitors of HP1-beta Chromodomain Interactions with Methylated Histone Tails; further: nearly all actives have a fitted effect of over 70% in size
Details: AlphaScreen HP1-beta / biotin-H3K9me3 peptide binding; series mostly up to 114 µM
Description: As our understanding of epigenetics expands, it is becoming clear that players in this field are potential targets for drug development. This area of epigenetic therapy has established applications for the treatment of cancer and neurological diseases. We have been involved in this field for a number of years and have performed high-throughput screens to identify the first small molecule inhibitors of protein methyltransferases. These methyltransferases target multiple substrates, and thus regulate many arms of an epigenetic pathway. The methylation of different substrates often generates docking sites for effector proteins that harbor binding domains (chromo, tudor, PHD, MBT and ANK repeats). It has been proposed that the binding sites generated for different proteins by these post-translational modifcations mediate downstream effects on chromatin. Consistent with this theory, di- and tri-methylation of histone H3K9 facilitates the binding of heterochromatin protein HP1. The HP1 protein harbors a chromodomain that is responsible for the methyl-dependent interaction between HP1 and lysine 9 of histone H3. HP1 was first described in flies as a heterochromatin associated protein that can regulate gene silencing. It harbors a chromodomain that binds H3K9me3. In addition, it harbors a chromoshadow domain that interacts with a large number of proteins that are involved in heterochromatin formation and gene repression. There are three highly related HP1 isoforms. All three variants are associated with pericentric heterochromatin and it is not clear whether they have specific or redundant functions. MPP8 is also involved in the repression of gene in euchromatic regions (unpublished data) and like HP1 its chromodomain binds H3K9me3. MPP8 harbors an ankyrin repeat region that is likely involved in binding and recruiting interacting proteins with transcriptional repressive function, much like the chromoshadow domain of HP1 does. We hypothesize that by inhibiting specific protein-protein interactions we will be able to develop compounds that block a single arm of an epigenetic pathway. The specificity attained by blocking a single protein-protein interaction will be far greater than that attained by blocking the enzyme that regulates one of many interactions. Low-affinity protein-protein interactions (Kd in the single- to double-digit micromolar range) such as those discussed here have been very difficult to assay by traditional techniques such as fluorescence polarization or fluorescence resonance energy transfer. We have developed a sensitive chemiluminescence-based assay (Quinn, et al. 2009), which serves as the starting point for this project. The following is a validation assay to identify lead compounds that can block methyl-dependent protein-protein interactions (specifically HP1-beta), which can be used as probes to analyze these methyl-driven interactions and perhaps even developed into targeted epigenetic therapies. NIH Chemical Genomics Center [NCGC] NIH Molecular Libraries Probe Centers Network [MLPCN] MLPCN Grant: DA031087 Assay Submitter (PI): Mark Bedford, University of Texas, Medical Anderson Cancer Center, TX
To each well, 2 uL of HP1-beta protein (final 50 nM) and 1 uL biotinylated histone peptide trimethylated at Lys9 [b-H3(1-18)K9me3] (final 50 nM) was added in 1x PBS buffer, pH 7.4, containing 0.01% Tween-20 using a nanoliter dispenser. Formation of a protein-peptide complex proceeded at room temperature for 30 min. A Kalypsys pin-tool was employed to transfer 23 nL of library compound solution in DMSO to each well. Aurintricarboxylic acid (ATA) was used as an intraplate control with a 12-point titration in duplicate. Following a 30 min incubation of the protein-peptide complex with compounds at room temperature, a mixture of 40 ug/mL each streptavidin-coated donor and nickel chelate acceptor AlphaScreen beads (final 10 ug/mL) was added in a 1 uL dispense for a final volume of 4 uL. […]
Potency means the concentration at half of the fitted maximal effect; tags describe the fitted curve by direction and shape.

UniProt P83916, sequence (P83916 whole entry, looked up): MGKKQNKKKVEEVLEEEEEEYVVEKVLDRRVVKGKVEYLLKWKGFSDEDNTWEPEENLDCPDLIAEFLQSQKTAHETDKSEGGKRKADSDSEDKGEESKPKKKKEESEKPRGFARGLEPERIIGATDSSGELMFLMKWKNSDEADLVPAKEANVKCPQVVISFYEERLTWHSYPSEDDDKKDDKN

| SMILES | Potency |
| --- | --- |
| COc1ccc(-c2cc(-c3cc(OC)ccc3O)[nH]n2)cc1 | inconclusive: 35.5 µM [inhibitor, full curve] |
| CCC(Oc1ccccc1)C(=O)N1CCN(Cc2cc(=O)n3nc(-c4cccc(C)c4)sc3n2)CC1 (centres undefined) | inactive |
| Cc1cccc(C)c1NC(=O)CN(C)C(=O)c1cccc(-n2cccc2)c1 | inconclusive: 56.2 µM [inhibitor, partial curve, poor fit] |
| Cc1nc2scc(-c3ccc(C(C)(C)C)cc3)c2c(=O)n1N | inconclusive: 89.1 µM [inhibitor, single point] |
| CCC(=O)Nc1cccc(NC(=O)c2ccc3c(c2)OCCO3)c1 | inactive |
| CCCCOC(=O)c1ccc(NC2=NS(=O)(=O)c3ccccc32)cc1 | inactive |
| CN1C(=O)C(CC(=O)Nc2ccc(Cl)cc2)N(Cc2ccco2)C1=S (centres undefined) | inactive |
| Cc1ccc(-n2[nH]c(C)c(C=Nc3cc(C)ccn3)c2=O)cc1 | inactive |
| CCOC(=O)c1cc(-c2ccc(OC)cc2)nn1-c1ccccc1C(=O)O | inconclusive: 31.6 µM [inhibitor, full curve] |
| O=C(CCC(=O)N/N=C/c1ccc(Br)o1)N/N=C/c1ccc(Br)o1 | inconclusive: 89.1 µM [inhibitor, single point] |
| OC1CCN(Cc2cccc3ccccc23)CC1 | inconclusive: 39.8 µM [inhibitor, partial curve] |
| CC(C)c1ccc(/C=C/C2=NNC(=O)CC2)cc1 | inconclusive: 5.01 µM [inhibitor, full curve, poor fit] |
| CCCCNC(=S)NNC(=O)c1c(Cl)c(C)nn1C | inactive |
| NC(=O)c1c(NC(=O)C2CCCO2)sc2c1CCCCC2 (centres undefined) | inconclusive: 39.8 µM [inhibitor, partial curve, poor fit] |
| CCOc1ccc(OCC)c(NC(=O)CN(C)S(=O)(=O)c2cccc3nsnc23)c1 | inconclusive: 56.2 µM [inhibitor, single point] |
| Cc1cccc(C)c1NC(=O)COC(=O)CCC(=O)c1cccs1 | inconclusive: 89.1 µM [inhibitor, single point] |
| COC(=O)c1cc2c(ccn2-c2ccc(F)cc2)n1C(C)C | inconclusive: 50.1 µM [inhibitor, partial curve] |
| CN(C)C1(CNCC(O)c2ccccc2)CCCCC1 (centres undefined) | inconclusive: 14.1 µM [inhibitor, partial curve, poor fit] |
| CCOc1ccc(NC(=O)CSc2nc3c([nH]c4ccccc43)c(=O)n2-c2cc(C)cc(C)c2)cc1 | inactive |
| NCCc1ccn[nH]1 | inactive |
| CCN1CCN(CC(=O)Nc2cc(C(F)(F)F)ccc2OCCOC)CC1 | inconclusive: 25.1 µM [inhibitor, partial curve, poor fit] |
| CC(C)(C)OC(=O)N1CCC(c2c(C(=O)NCc3ccccc3)cnn2-c2ccc(F)cc2)CC1 | inactive |
| Cc1cc(O)c(Oc2cc(C)cc(O)c2O)c(O)c1 | inconclusive: 25.1 µM [inhibitor, full curve, poor fit] |

| SMILES | Potency |
| --- | --- |
| COc1ccc(CCNc2oc(COc3cccc(C)c3)nc2C#N)cc1OC | inconclusive: 15.8 µM [inhibitor, full curve, poor fit] |
| Cn1cc(C(c2ccccn2)c2cn(C)c3ccccc23)c2ccccc21 | inconclusive: 35.5 µM [inhibitor, single point] |
| CC1=C(/C=C/C(C)=C/C=C/C(C)=C/C(=O)Nc2ccc(O)cc2)C(C)(C)CCC1 | inconclusive: 25.1 µM [inhibitor, single point] |
| CC(=O)N1CCc2cc(Br)cc(S(=O)(=O)NCCc3ccc(Cl)cc3)c21 | inactive |
| Cc1ccc(C2C(C(=O)c3cccs3)=C(O)C(=O)N2c2cccc(C)n2)cc1 (centres undefined) | inconclusive: 89.1 µM [inhibitor, single point] |
| Nc1ccccc1Sc1ccc(C(F)(F)F)cc1[N+](=O)[O-] | inconclusive: 44.7 µM [inhibitor, partial curve] |
| c1ccc(CC2CCN(Cc3ccccn3)CC2)cc1 | inconclusive: 15.8 µM [inhibitor, full curve, poor fit] |
| Cc1cc([N+](=O)[O-])cc([N+](=O)[O-])c1NCC(C)C | active: 39.8 µM |
| O=C(c1cn(-c2ccccc2)nc1-c1ccc(Br)cc1)N1CCOCC1 | inconclusive: 3.16 µM [inhibitor, single point] |
| S=c1[nH]nc(Nc2cccc3ccccc23)s1 | active: 39.8 µM |
| CCOc1cc(NC(=S)Nc2ccccc2OC)c(OCC)cc1NC(=O)c1ccccc1C | inconclusive: 17.8 µM [inhibitor, full curve] |
| O=c1c2c(-c3ccc([N+](=O)[O-])cc3)csc2nc2n1CCC2 | inconclusive: 8.91 µM [inhibitor, full curve, poor fit] |
| CCOP(=O)(OCC)c1nc(-c2ccccc2Cl)oc1N1CCOCC1 | inactive |
| CCN1CCC2(CC1)N=C(c1ccc(F)cc1)C(=S)N2C(=O)c1ccc(C(C)(C)C)cc1 | inconclusive: 50.1 µM [inhibitor, partial curve, poor fit] |
| Cc1cccc(N2C(=O)SC(SC(=Nc3ccccc3)Nc3ccccc3)C2=O)c1 (centres undefined) | inconclusive: 20 µM [inhibitor, full curve] |
| CCCOc1ccc(-c2cc(C(F)(F)F)c(C#N)c(SCCC(=O)O)n2)cc1 | inactive |
| O=C(c1cnc2n(c1=O)CCS2)N1CCc2ccccc21 | inactive |
| CCOC(=O)c1c(NC(=O)CC)sc(C(=O)NC2CCCC2)c1C | inactive |
| Cc1sc(NC(=O)CCl)c(C(=O)c2ccccc2)c1C | inconclusive: 7.94 µM [inhibitor, full curve, poor fit] |
| CCOc1ccc(NCc2nc3ccccc3n2CCOc2ccc(C)cc2)cc1 | inconclusive: 15.8 µM [inhibitor, full curve, poor fit] |
| CCOC(=O)C1=C(O)/C(=C/c2ccc(OCC(=O)O)c(OC)c2)SC1=Nc1ccc(OCC)cc1 | inconclusive: 22.4 µM [inhibitor, single point] |
| O=C(CCC(=O)CCN1CCCCC1)CCN1CCCCC1 | inconclusive: 56.2 µM [inhibitor, partial curve, poor fit] |
| CCCC1=NN2C(=N)/C(=C\c3ccc(SCc4ccco4)o3)C(=O)N=C2S1 | inconclusive: 56.2 µM [inhibitor, single point] |

| SMILES | Potency |
| --- | --- |
| COc1ccccc1CNC(=O)C(=O)NCC(c1cccs1)S(=O)(=O)c1cccs1 (centres undefined) | inactive |
| CCOC(=O)C1C(=O)NC(SCC(=O)Nc2nccs2)=C(C#N)C1c1ccccc1OCC (centres undefined) | inconclusive: 20 µM [inhibitor, partial curve, poor fit] |
| CCn1c(C(=O)OC)cc2c1ccn2-c1ccc(F)cc1 | inconclusive: 3.98 µM [inhibitor, full curve, poor fit] |
| COc1cc(O)c(C(CCN2CCOCC2)c2ccc(N(C)C)cc2)c(OC)c1 (centres undefined) | inconclusive: 50.1 µM [inhibitor, partial curve, poor fit] and inconclusive: 28.2 µM [inhibitor, full curve] |
| CCOc1ccc(N/C=C/C(=O)c2ccccc2)c([N+](=O)[O-])c1 | inconclusive: 25.1 µM [inhibitor, partial curve] |
| COc1cc(/C=N/n2c(C3CCCCC3)n[nH]c2=S)ccc1O | inconclusive: 28.2 µM [inhibitor, partial curve, poor fit] |
| COc1ccc(CN2C(=O)/C(=C/c3ccncc3)SC2=S)cc1 | inconclusive: 15.8 µM [inhibitor, full curve, poor fit] |
| COc1cccc(CN2CC(C(=O)NCc3cccc(N4CCCC4)c3)CCC2=O)c1 (centres undefined) | inactive |
| CCOC(=O)N1CCC(N2CCN(S(=O)(=O)c3ccc4ccccc4c3)CC2)CC1 | inconclusive: 25.1 µM [inhibitor, single point] |
| COc1ccccc1/C=C/CN1CCN(c2ccccc2)CC1 | inconclusive: 44.7 µM [inhibitor, partial curve] |
| O=S1(=O)c2cccc3cccc(c23)N1Cc1nnc(-c2ccccc2Br)o1 | inactive |
| CN(C)C(=S)N=c1ssc(=S)n1Cc1ccccc1 | inconclusive: 11.2 µM [inhibitor, full curve, poor fit] |
| O=C(NCc1ccccn1)c1ccc(OC2CCN(Cc3ccc(Cl)s3)CC2)cc1 | inactive |
| CN(C(=O)c1cccc(NC(=O)Cc2cccc(NC(=O)C3CCCN(C(=O)C4CCCC4)C3)c2)c1)C1CC1 (centres undefined) | inactive |
| CCC(=O)Nc1nc2ccccc2n1Cc1ccc(Cl)cc1 | inactive |
| CC1CCCC(C)N1/N=C/c1ccc([N+](=O)[O-])cc1 (centres undefined) | inconclusive: 17.8 µM [inhibitor, full curve] |
| CC(=O)NS(=O)(=O)c1ccc(N=c2ssc3c2-c2ccc(C)cc2NC3(C)C)cc1 | inconclusive: 44.7 µM [inhibitor, partial curve, poor fit] |
| COc1c(O)ccc(/C=N/NC(=O)c2ccc3c(c2)OCCO3)c1[N+](=O)[O-] | inactive |
| COc1ccc(Cl)cc1C(Nc1cccnc1)c1ccc2cccnc2c1O (centres undefined) | inconclusive: 25.1 µM [inhibitor, partial curve] |
| c1ccc(C[n+]2c(-c3ccccc3)csc2Nc2ccccc2)cc1 | active: 25.1 µM |
| Cc1ccc(C(=O)NCCn2cc(SCC(=O)Nc3nnc(C)s3)c3ccccc32)cc1 | inactive |
| O=C(Nc1ccc(N2CCOCC2)cc1N1CCOCC1)c1ccco1 | inconclusive: 39.8 µM [inhibitor, single point] |
| COc1cc2c(cc1OC)C(C(=O)Nc1ccccn1)C(c1cccnc1)N(C)C2=O (centres undefined) | inactive |
